The whole screen tested about 50,000 compounds, of which about 800 (1.6%) showed an effect of 50% or more. The list shows a part of the results.

The assay has as its target Bcl-2-like protein 10 (Homo sapiens) (UniProt Q9HD36). In words: TR3 peptide-Bcl-B binding displacers, biochemical primary FP assay, phenotype converters (AID 1240).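 Also: 0% = Bcl-B with tracer peptide and DMSO and 100% = tracer peptide lacking Bcl-B.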 Particulars: GST-Bcl-B / FITC-TR3 peptide fluorescence polarization; stronger effect = higher value; compound at 3.75 mg/L. A general note: Fluorescence polarisation rises when a labelled molecule tumbles more slowly, as on binding a larger partner.
Chain of UniProt Q9HD36 (Q9HD36 whole entry, looked up): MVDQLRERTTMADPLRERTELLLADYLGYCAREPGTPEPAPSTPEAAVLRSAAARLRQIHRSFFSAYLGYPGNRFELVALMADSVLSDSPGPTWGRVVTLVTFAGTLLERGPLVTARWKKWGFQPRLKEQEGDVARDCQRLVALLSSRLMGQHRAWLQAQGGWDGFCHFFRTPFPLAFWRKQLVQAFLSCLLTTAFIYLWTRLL
In the case of `CC(C)(CN1CCOCC1)NS(=O)(=O)c1ccc(Cl)cc1`, the displacement stood at 7.4%.
As for `O=C(Nc1cccc(C(F)(F)F)c1)c1nn2c(c1Cl)NC(c1ccccc1)CC2C(F)(F)F` (configuration not stated), the figure is 3.9%; as for `CCN(CC)c1ccc(NC(=O)c2ccc(OCc3ccccc3)cc2)cc1`, 11.2%; as for `Cc1cc(-n2cc(C=O)c(-c3ccccc3)n2)nc2ccccc12`, 75.4%.
As to `O=C(/C=C/c1ccccc1)c1ccc([N+](=O)[O-])cc1`, the displacement was determined as 14.1%.
As to `Cc1cc(C)cc(NC(=O)c2ccc([N+](=O)[O-])c(C)c2)c1`, the displacement is -9.1%.
Consider `CC(=O)n1cc(/C=C2\C(=O)NC(=S)N(c3cccc4ccccc34)C2=O)c2ccccc21`, for which the displacement is -7.4%.
In the case of `Cc1cc(OCC(=O)Nc2ccc(Cl)cn2)ccc1Cl`, the displacement was 8%.
For the compound `CCCCOC(=O)COC(=O)COc1c(Cl)cc(Cl)cc1Cl`, the displacement is -2.8%.
As for `COc1ccc(NC(=O)c2cccc(Cl)c2)cc1`, the figure is -1.3%; as for `COc1ccc(S(=O)(=O)N2CCN(C(=O)COc3ccc(Cl)cc3)CC2)cc1`, 1.9%.
Regarding `O=C(CSc1nnc(-c2ccc(Br)cc2)o1)NC1CCCCC1`, the displacement came out at 7.5%.
The same measure for `CN1CCN(C(=O)c2cc3nc(-c4ccc([N+](=O)[O-])cc4)cc(C(F)(F)F)n3n2)CC1`: 13.3%; for `Cc1cc(C)c2cccc(NC(=O)C3CC3)c2n1`: 14.2%; for `COCCCNC(=S)Nc1ccc(Cl)cc1Cl`: -14.3%.
For the compound `O=C(Cc1c(O)c2ccccc2[nH]c1=O)N1CCOCC1`, the displacement is -1.9%.
For the compound `COC(=O)c1cc(NC(=O)c2ccc(-c3cc(Cl)ccc3Cl)o2)cc(C(=O)OC)c1`, the displacement amounted to 2.4%.
As for `CCc1ccc(-c2nc3cc(NC(=O)c4ccc5c(c4)OCCO5)ccc3o2)cc1`, the displacement was 1.6%.
Regarding `CCOC(=O)c1c(NC(=O)C2CC2c2ccccc2)sc2c1CCC(C)C2` (configuration not stated), the displacement is -8.5%.
Turning to `C=CCC1CC=CC(CC=C)(C(O)(CC=C)CC=C)N1` (configuration not stated), the displacement was 3.4%.
The same measure for `COc1ccc(C(=O)Nc2ccc([N+](=O)[O-])cc2C)cc1`: 18.6%; for `COc1ccc(NC(=O)c2ccc(C#Cc3ccccc3)cc2)cc1`: -3%.
`CCN(CC)c1ccc(C(=O)n2cnc3ccccc32)cc1`: the displacement is 14.9%.
Consider `Cc1ccc(-c2ccc(OCC(=O)NCCc3ccccc3)cc2)cc1`, for which the displacement was -7%.
For the compound `O=C1N=C(N2CCOCC2)S/C1=C\c1ccc2c(c1)OCO2`, the displacement is -11.3%.
In the case of `COc1cccc(N2C(=O)CC(N3CCN(Cc4ccc5c(c4)OCO5)CC3)C2=O)c1` (configuration not stated), the displacement came to 10.6%.
For `Cc1n[nH]c(C)c1CCCCCCOc1ccccc1Cl`, the displacement was -8.7%.
In the case of `Cc1cccc(NC(=O)c2ccc(OCC(C)C)cc2)c1`, the displacement was 10.3%.
Regarding `O=C(Nc1nncs1)c1ccc2c(c1)OCO2`, the displacement was -4.7%.
As for `CCOC(=O)c1c(C)n(CCc2ccc(OC)c(OC)c2)c2ccc(OC)cc12`, the figure is -8.1%.
The same measure for `CCc1ccccc1NC(=O)C(=O)NCCCOC`: -0.8%; for `N/C(=N\c1nc2ccccc2s1)NC(=O)c1ccccc1`: -4.1%; for `CCOC(=O)C1=C(C)NC(=S)NC1c1ccc(Cl)cc1` (configuration not stated): -7.9%.
The same measure for `CCCCOc1ccccc1NC(=O)c1ccc(OC)c(OC)c1`: -17.1%.
In the case of `O=C1c2ccc(-c3nc4cc(Cl)ccc4c(=O)o3)cc2C(=O)N1c1cccc([N+](=O)[O-])c1`, the displacement came to 5.4%.
The same measure for `Cc1c(NS(=O)(=O)c2ccccc2)cccc1[N+](=O)[O-]`: -2.8%; for `Cc1ccc2ncnc(NCc3cccnc3)c2c1`: 0.9%.
For `Cc1ccc(OCCOCCN2CCC(C)CC2)cc1`, the displacement was -3%.
Consider `CC(=O)Oc1ccc(NC(=O)CN2C(=O)c3ccccc3C2=O)c(C)c1`, for which the displacement is -5.1%.
Take `COc1ccc(Cl)cc1N=Cc1ccc(OC2CSC2)cc1`: the displacement stood at 1.2%.
In the case of `Cc1ccc(-c2ccccc2NC(=O)c2ccccc2)o1`, the displacement worked out at 14.5%.
For the compound `Cc1cccc(N2CCN(C(=O)c3ccccc3)CC2)c1C`, the displacement was -2.5%.
The same measure for `CCN(CC)S(=O)(=O)c1cc(C(=O)Nc2ccc(C)cc2)ccc1C`: -14.1%; for `CS(=O)(=O)N1CCN(Cc2ccc(C(F)(F)F)cc2)CC1`: 8.1%; for `Cn1cc(/C=C2/SC(=S)N(c3cccc(C(F)(F)F)c3)C2=O)c2ccccc21`: -7.6%.
The same measure for `O=C(CN(c1cccc([N+](=O)[O-])c1)S(=O)(=O)c1ccccc1)N1CCOCC1`: 5%; for `O=[N+]([O-])c1cc(C(F)(F)F)cc([N+](=O)[O-])c1N1CCN(CCO)CC1`: -2.1%; for `CSc1ccccc1NC(=O)c1cc2n(n1)C(C(F)(F)F)CC(c1ccc(Br)cc1)N2` (configuration not stated): 6.7%.
As for `CC1CN(c2ccc([N+](=O)[O-])cc2)CCN1C(=O)c1ccc(Cl)cc1` (configuration not stated), the displacement was -3.8%.
For `COc1ccc(NC(=O)COc2cccc3ccccc23)c(OC)c1`, the displacement came to 12.4%.
Consider `COc1ccc(NC(=O)CCC(=O)NCCO)cc1`, for which the displacement is -4.3%.
For `O=C(Nc1ccc(-c2nc3ccccc3o2)c(O)c1)c1cccc(Cl)c1Cl`, the displacement is 4.2%.
As for `COc1cc(/C=N\Nc2nnc(-c3ccccc3)c(=O)[nH]2)cc([N+](=O)[O-])c1O`, the displacement was -5.8%.
In the case of `Cc1ccc(C(=O)Nc2ccc3c4c(cccc24)CC3)cc1[N+](=O)[O-]`, the displacement worked out at 0.3%.
The same measure for `COc1ccccc1N1CCN(/N=C(\C)c2ccc(O)cc2)CC1`: 16.9%; for `CN(CCOC(=O)C(C)(c1ccccc1)c1ccccc1)C(C)(C)C`: 12.7%.
In the case of `COc1cccc(C(=O)N2N=C(C(F)(F)F)CC2(O)C(C)(C)C)c1` (configuration not stated), the displacement stood at 7.9%.
For `CC(=O)Nc1ccc2c(c1)S(=O)(=O)c1cc(NC(C)=O)ccc1-2`, the displacement came out at 1.6%.
In the case of `CC(=O)N1c2ccccc2-c2c(sn(-c3ccc(C)cc3)c2=S)C1(C)C`, the displacement was -3.5%.
With `O=c1/c(=C/c2cc([N+](=O)[O-])c(N3CCOCC3)cc2N2CCOCC2)sc2nc3ccccc3n12`, the displacement amounted to 6.7%.
As to `COc1ccc(-c2nc3c(n2O)CCc2c-3no[n+]2[O-])cc1`, the displacement was -10%.
Regarding `COc1cc(NC(=O)c2cc3nc(-c4ccco4)cc(C(F)(F)F)n3n2)cc([N+](=O)[O-])c1`, the displacement is 3.5%.
Consider `CN(C)c1ccc(NC(=O)C2C3C=CC(C3)C2C(=O)O)cc1` (configuration not stated), for which the displacement came to 33.6%.
The same measure for `COc1cc(C(=O)N2CCN(Cc3ccncc3)CC2)cc(OC)c1OC`: -17.2%; for `CC1(C)CC(=O)c2c(oc3ccc(NS(=O)(=O)c4ccc(Cl)cc4)cc23)C1`: 2%; for `CCOc1ccc(C(=O)Nc2cccc(-c3nc4cc(C)ccc4o3)c2C)cc1`: 17.4%.
On to `CCC(C(=O)NCc1ccc(F)cc1)c1ccccc1` (configuration not stated), for which the displacement is -1.6%.
Consider `CCc1ccccc1NC(=O)CN(c1cccc(OC)c1)S(=O)(=O)c1ccccc1`, for which the displacement worked out at 6.4%.
On to `Nc1nnc(COc2ccc(Cl)cc2Cl)s1`, for which the displacement worked out at 2.4%.
Regarding `COc1ccc(/C=C2/SC(=S)N(c3cccc(C(F)(F)F)c3)C2=O)cc1`, the displacement worked out at 7%.
The same measure for `COC(=O)c1c(NC(=O)c2c(F)cccc2F)sc2c1CCC(C(C)(C)C)C2` (configuration not stated): 0.7%.
`CCOc1cc(/C=C2\SC(=S)N(CCOC)C2=O)ccc1O`: the displacement was 89.2%.
As for `CCOC(=O)c1cnc(Sc2ccc([N+](=O)[O-])cc2[N+](=O)[O-])nc1N`, the displacement amounted to 5.6%.
As for `Oc1ccc2ccccc2c1CN(Cc1ccccc1)Cc1ccccc1`, the figure is -7.4%; as for `COc1ccc(Br)cc1CN1CCN(Cc2ccccn2)CC1`, -17.5%; as for `COc1ccc2c(c1)CCC/C2=N\NC(=O)CN(c1ccccc1)S(=O)(=O)c1ccccc1`, 0.9%.
Turning to `CCN(CC)C(=O)c1sc(NC(=O)c2ccc(C(C)(C)C)cc2)c(C(=O)OC(C)C)c1C`, the displacement is -6%.
`O=C(NCc1ccco1)c1cc2n(n1)C(C(F)(F)F)CC(c1ccc(Cl)cc1)N2` (configuration not stated): the displacement came out at 7.2%.
As for `Oc1[nH]c2ccccc2c1N=Nc1nc(-c2ccccc2)c2cc(Br)ccc2n1`, the displacement is -2%.
Turning to `C=C(C)COc1ccc2oc(C)c(C(=O)OC)c2c1`, the displacement was 7.6%.
On to `CC(Nc1cc(N2CCN(CCO)CC2)ccc1[N+](=O)[O-])c1ccc(Br)cc1` (configuration not stated), for which the displacement is 12.1%.
On to `O=C(Cn1cc(/C=C2\NC(=S)NC2=O)c2ccccc21)Nc1ccccc1`, for which the displacement is -41.9%.
As for `O=c1oc2cc(OCc3c(F)c(F)c(F)c(F)c3F)ccc2cc1-c1ccc2ccccc2n1`, the figure is -49.7%.
In the case of `Cn1c(=O)c2c(nc(SCC(=O)Nc3ccc(F)cc3)n2C)n(C)c1=O`, the displacement came out at 9.2%.
As to `CC(=O)N(c1ccccc1)c1c(F)c(F)c(F)c(F)c1F`, the displacement was -8.8%.
For `CC(=O)Oc1cccc(N2C(=O)C3C4C=CC(CC4)C3C2=O)c1` (configuration not stated), the displacement is -8.5%.
As for `CCOC(=O)Cc1nnc(Nc2ccc(C)cc2)c2ccccc12`, the figure is 11.4%; as for `CCOC(=O)c1c(NC(=O)C(C)N2C(=O)c3ccccc3C2=O)sc2c1CCC(C)C2` (configuration not stated), 2.5%; as for `O=P(CCN1CCOC1c1cccnc1)(c1ccccc1)c1ccccc1` (configuration not stated), -8.2%.
For `CCOC(=O)c1c(NC(=S)Nc2ccc(OC)cc2)sc2c1CCCCC2`, the displacement is -1%.
Turning to `CCc1ccc(NC(=O)c2ccc(C)c([N+](=O)[O-])c2)cc1`, the displacement is 8.9%.
With `CCOC(=O)C1=C(O)/C(=C/c2ccc(OCC)cc2)SC1=Nc1ccc([N+](=O)[O-])cc1`, the displacement came to 122%.
Turning to `CCOC(=O)c1ccc(N=CC2=C(O)c3ccccc3C2=O)cc1`, the displacement was -6%.
In the case of `COC(=O)COc1ccc(/C=C2/C(=O)N(c3ccccc3)N=C2C)cc1`, the displacement was found to be 6.5%.
Turning to `N#C/C(=C\c1ccc(C(=O)O)cc1)C(=O)NCC1CCCO1` (configuration not stated), the displacement turned out to be 0%.
In the case of `C=CCNC(=O)/C(=C/c1cn(-c2ccccc2)nc1-c1cccc([N+](=O)[O-])c1)NC(=O)c1ccccc1`, the displacement was found to be 11.3%.
In the case of `COc1ccc(C(=O)/C=C/c2ccc(-c3ccc([N+](=O)[O-])cc3)o2)cc1`, the displacement was found to be 133%.
Take `CCOC(=O)c1sc(NC(=O)c2ccc(C(C)C)cc2)nc1C`: the displacement was -4%.
The same measure for `Cc1ccc(NC(=O)CN2C(=O)c3ccccc3C2=O)c(C(=O)O)c1`: -3.3%.
On to `CN1CCN(C(=O)c2ccc3c(c2)OCCO3)CC1`, for which the displacement is -7.1%.
As to `O=C1NC(c2ccc(Cl)cc2Cl)Nc2c1sc(=S)n2-c1ccccc1` (configuration not stated), the displacement is -17.4%.
The same measure for `Cc1cc(C)nc(SCC(=O)OCC(=O)Nc2nnc(C)s2)n1`: -27.8%; for `COCCN1C(=O)/C(=C\c2cccc(Cl)c2)C(C(=O)OC)=C1C`: -5.5%; for `CC(/C=N\NC(=O)c1cc(C(C)(C)C)[nH]n1)=C\c1ccccc1`: -7.4%.
For `COC1=CC(CC(=O)c2ccc(OC)cc2)C(C(=O)c2ccccc2Cl)C=C1OC` (configuration not stated), the displacement was -11%.
As for `CS(=O)(=O)N1CCN(Cc2ccc(Cl)cc2)CC1`, the figure is 12.2%; as for `Cc1c(NC(=O)c2cccc(I)c2)cccc1-c1nc2ccccc2o1`, 11.6%.

These data come from PubChem BioAssay AID1240 (Sanford-Burnham Center for Chemical Genomics, 2008).
